Data reported in PubChem BioAssay AID624296 (National Center for Advancing Translational Sciences (NCATS), 2012).
In all, about 350,000 compounds went through this assay and about 9,900 (2.8%) were called active. This list was built around the results that the source calls inconclusive (neither active nor inactive); the mix of calls is not that of the screen. Calls follow the shape of the dose curve; as a rule, active = well fitted activation curve with a large enough effect; inconclusive = small, poorly fitted or top-dose-only effect; inactive = no such curve, though single readings can be large or run the other way. Potencies of inconclusive entries are left out as doubtful fits.

assay: A quantitative high throughput screen for small molecules that induce DNA re-replication in MCF 10a normal breast cells.; also: nearly all actives have a fitted effect of over 50% in size; conditions: MCF 10A DNA re-replication, Hoechst nuclear intensity, 48 h; series mostly up to 46.1 µM
Potency is read from the fitted curve at half-maximal effect; tags tell the direction and shape of the fitted curve.

Row | SMILES | Potency
1 | Cc1ccc(S(=O)(=O)Nc2ccc3nc(C)sc3c2)cc1 | inactive
2 | CC(=O)c1ccc(OCc2cc(C(=O)N3CC[C@@H]4CCCC[C@H]4C3)no2)cc1 | inactive
3 | O=C1C2C3c4ccccc4C(c4ccccc43)[C@@H]2C(=O)N1c1ccccn1 (some centres not stated) | inactive
4 | O=C1N[C@@H](Cc2ccccc2)COC(=O)[C@H](Cc2ccc(F)cc2)CC/C=C/C[C@H]1CC(=O)N(CCO)Cc1ccccc1 | inconclusive [activator, single point]
5 | Cc1ccc(C(=O)NCCN2C3=NC[C@@H](Cc4ccccc4)N3C[C@H]2Cc2ccc(O)cc2)cc1Br | inactive
6 | CCc1sc(C(=O)NCc2cc(C)n(C)n2)cc1Br | inactive
7 | Cc1ccc(NC(=O)c2ccc(NCCCN3CCC(C)CC3)c([N+](=O)[O-])c2)cc1F | inactive
8 | COC(=O)[C@@H](CC(C)C)NS(=O)(=O)N(Cc1ccccc1)[C@@H](CC(C)C)C(=O)OC | inconclusive [activator, single point]
9 | CCN(CC)S(=O)(=O)c1cccc(NC(=O)COc2ccc(Cl)cc2Br)c1 | inactive
10 | COc1ccc2c(CC(=O)NCc3ccc4c(c3)OCO4)coc2c1 | inconclusive [activator, single point]
11 | COC(=O)c1ccc(Cl)c(NC(=O)NC23CC4CC(CC(C4)C2)C3)c1 | inactive
12 | COc1ccc(NC(=O)c2cc(C)cc(C)c2)cc1S(=O)(=O)N1CCCCC1 | inactive
13 | Cc1noc(C)c1COC(=O)c1ccc(S(=O)(=O)NCc2ccco2)cc1 | inconclusive [activator, single point]
14 | O=C(/C=C/Sc1ccccc1)c1ccc(Cl)cc1 | inactive
15 | COc1ccc(CN(C(=O)c2ccco2)c2ccc(Br)cc2)cc1OC | inactive
16 | Cc1ccccc1NC(=S)NC(=O)c1cncc(Br)c1 | inactive
17 | Cn1c(SCc2c(F)cccc2Cl)nc2c(c1=O)SCC2 | inconclusive [activator, partial curve, poor fit]
18 | O=[N+]([O-])c1ccccc1Nc1c2ccccc2nc2ccccc12 | inactive
19 | COc1ccc(CNCc2ccc3c(c2)OCO3)cc1Br | inconclusive [activator, single point]
20 | Cc1ccc2c(c1)N(C)/C(=C/c1cccc[n+]1C)S2 | inconclusive [activator, partial curve, poor fit]
21 | CCOc1cc(NC(=O)c2cccs2)c(OCC)cc1NC(=O)c1cccnc1 | inconclusive [activator, single point]
22 | O=[N+]([O-])c1ccc(/C=C2\CCC(C3=CCCC3)=C2N2CCOCC2)cc1 | active: 23.1 µM
23 | Cc1ccc(-n2nc(CC#N)c(C#N)c2N)cc1 | inactive
24 | O=C(CSc1nnnn1-c1ccccc1)NCC1(N2CCOCC2)CCCCC1 | inconclusive [activator, single point]

Row | SMILES | Potency
25 | CC(CC(=O)Nc1cccnc1)c1ccccc1 (configuration not stated) | active: 11.6 µM
26 | CC(Oc1cc2oc(=O)c3c(c2cc1Cl)CCC3)C(=O)NCc1ccccn1 (configuration not stated) | inactive
27 | CCC1(c2ccc(F)cc2)NC(=O)N(CC(=O)NC2CC2)C1=O (configuration not stated) | inactive
28 | COc1ccccc1-n1c(N)c(C(=O)NCC2CCCO2)c2nc3ccccc3nc21 (configuration not stated) | inconclusive [activator, single point]
29 | COCc1cc(CN2CCN(C)CC2)c(O)c2ncccc12 | inconclusive [activator, single point]
30 | CCC(CC)C(=O)N1N=C(c2ccc(NS(C)(=O)=O)cc2)CC1c1ccccc1 (configuration not stated) | inconclusive [activator, partial curve, poor fit]
31 | O=C(NCCc1ccco1)c1cc(COc2cccc(C(F)(F)F)c2)on1 | inconclusive [activator, partial curve, poor fit]
32 | COC(=O)N1C(=O)[C@@](c2ccccc2)(C(C)C)N1C(=O)OC | inconclusive [activator, single point]
33 | COc1cccc(CN(C)CCCn2cnc(C(=O)Nc3ccc(C)c(C)c3)n2)c1 | inactive
34 | CC(=O)N(/N=C1\Sc2ccccc2C1=O)c1ccc(C)cc1C | inactive
35 | O=C(N/N=C/C(Cl)=C/c1ccccc1)c1ccc2c(c1)OCO2 | inconclusive [activator, partial curve, poor fit]
36 | NC(=O)c1ccc(NC(=O)c2cccc3c2OCCCO3)cc1 | inconclusive [activator, single point]
37 | CCCCOc1ccc(OC(=O)c2cccnc2)cc1 | inconclusive [activator, partial curve, poor fit]
38 | N#Cc1ccccc1NC(=O)COc1ccccc1C(=O)Nc1ccccc1 | inactive
39 | COc1ccc(CNc2nc3c(c(=O)n(Cc4ccc(Br)cc4)c(=O)n3C)n2C)cc1 | inconclusive [activator, partial curve, poor fit]
40 | C=CCn1c(O)c(/C=C2\C=NN=C2c2ccccc2)sc1=S | inconclusive [activator, partial curve, poor fit]
41 | CCOc1ccc(NS(=O)(=O)c2cc(C(=O)N3CCCC3)ccc2Cl)cc1 | inconclusive [activator, partial curve, poor fit]
42 | CCNC(=S)N1CCN(C(=O)C(Cc2ccccc2)NC(C)=O)CC1 (configuration not stated) | active: 0.651 µM
43 | Cc1ccc2nc(NNC(=O)c3ccc(S(=O)(=O)N4CCc5ccccc5C4)cc3)sc2c1 | active: 9.2 µM
44 | COc1ccccc1NC1=C(N2CCCCC2)C(=O)c2ccccc2C1=O | active: 3.26 µM
45 | O=C1/C(=C/c2cccnc2)SC(=S)N1Cc1ccco1 | inconclusive [activator, single point]
46 | CC(=O)N1c2ccc3ccccc3c2C(C)CC12CCCCC2 (configuration not stated) | inconclusive [activator, single point]
47 | COc1ccc([C@@H]2Sc3ccccc3NC(=O)[C@@H]2O)cc1 | inconclusive [activator, single point]
